Data published in article PMC6078952.
No constants are given. Whether binding was seen depends on the method and setting.

Protein sequences, listed by entry. Tags and fused reporters are not part of them. Lines headed by an entry give the natural chain unless they say otherwise; changes in a name come on top. Chains listed by the source or under a name are the forms on record and can include a tag or linker. Residues count along the entry.
Lysyl oxidase propeptide (LOX-PP) (Pro24Leu) (P28300, form named): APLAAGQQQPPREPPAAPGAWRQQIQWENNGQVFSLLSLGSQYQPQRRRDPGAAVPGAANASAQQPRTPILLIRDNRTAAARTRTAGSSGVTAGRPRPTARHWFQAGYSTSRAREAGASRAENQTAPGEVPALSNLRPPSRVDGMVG
UniProt P02462: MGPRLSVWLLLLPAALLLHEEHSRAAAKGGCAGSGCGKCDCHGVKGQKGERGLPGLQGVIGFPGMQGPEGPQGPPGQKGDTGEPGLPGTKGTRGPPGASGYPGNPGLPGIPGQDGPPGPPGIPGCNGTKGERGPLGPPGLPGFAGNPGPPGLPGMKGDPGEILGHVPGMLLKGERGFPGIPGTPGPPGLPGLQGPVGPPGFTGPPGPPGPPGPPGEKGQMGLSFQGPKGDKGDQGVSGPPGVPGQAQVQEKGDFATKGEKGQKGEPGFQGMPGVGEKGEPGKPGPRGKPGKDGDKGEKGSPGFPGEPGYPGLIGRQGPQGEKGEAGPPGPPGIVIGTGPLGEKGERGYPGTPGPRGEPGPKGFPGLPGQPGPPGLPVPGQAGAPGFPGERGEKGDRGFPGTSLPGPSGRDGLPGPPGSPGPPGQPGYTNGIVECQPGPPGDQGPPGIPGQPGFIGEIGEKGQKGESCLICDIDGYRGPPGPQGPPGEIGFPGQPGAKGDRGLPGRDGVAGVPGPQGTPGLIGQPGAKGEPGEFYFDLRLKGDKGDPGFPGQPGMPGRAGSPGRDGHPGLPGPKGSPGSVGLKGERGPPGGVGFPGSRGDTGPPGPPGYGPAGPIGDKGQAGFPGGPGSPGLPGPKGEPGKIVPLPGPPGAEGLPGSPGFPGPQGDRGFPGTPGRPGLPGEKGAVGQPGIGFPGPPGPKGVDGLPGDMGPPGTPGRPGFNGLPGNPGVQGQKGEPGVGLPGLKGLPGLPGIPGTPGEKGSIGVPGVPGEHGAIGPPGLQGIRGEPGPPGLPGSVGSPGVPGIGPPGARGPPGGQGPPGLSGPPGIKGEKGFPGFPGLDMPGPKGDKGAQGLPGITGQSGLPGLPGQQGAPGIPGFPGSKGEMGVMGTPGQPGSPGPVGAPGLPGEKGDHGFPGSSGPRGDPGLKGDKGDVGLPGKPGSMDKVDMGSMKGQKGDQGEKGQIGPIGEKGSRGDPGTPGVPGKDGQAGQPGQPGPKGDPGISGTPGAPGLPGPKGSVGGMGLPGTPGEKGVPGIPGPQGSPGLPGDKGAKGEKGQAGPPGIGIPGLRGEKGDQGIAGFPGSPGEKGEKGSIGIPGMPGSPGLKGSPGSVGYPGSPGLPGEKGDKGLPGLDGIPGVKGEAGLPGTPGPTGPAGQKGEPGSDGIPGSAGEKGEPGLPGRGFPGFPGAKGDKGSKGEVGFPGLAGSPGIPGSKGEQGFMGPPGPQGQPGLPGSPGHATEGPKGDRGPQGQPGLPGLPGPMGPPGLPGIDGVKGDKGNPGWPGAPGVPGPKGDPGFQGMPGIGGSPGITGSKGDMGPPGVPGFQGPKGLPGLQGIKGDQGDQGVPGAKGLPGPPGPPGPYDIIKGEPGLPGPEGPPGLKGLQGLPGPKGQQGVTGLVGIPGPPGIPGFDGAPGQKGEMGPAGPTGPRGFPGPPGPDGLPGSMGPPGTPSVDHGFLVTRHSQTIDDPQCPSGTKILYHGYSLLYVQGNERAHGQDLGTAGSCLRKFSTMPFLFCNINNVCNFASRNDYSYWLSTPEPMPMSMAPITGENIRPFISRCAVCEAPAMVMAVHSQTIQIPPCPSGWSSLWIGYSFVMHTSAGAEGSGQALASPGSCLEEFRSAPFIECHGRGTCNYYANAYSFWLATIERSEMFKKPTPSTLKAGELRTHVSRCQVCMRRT
UniProt P04004, residues 20-478: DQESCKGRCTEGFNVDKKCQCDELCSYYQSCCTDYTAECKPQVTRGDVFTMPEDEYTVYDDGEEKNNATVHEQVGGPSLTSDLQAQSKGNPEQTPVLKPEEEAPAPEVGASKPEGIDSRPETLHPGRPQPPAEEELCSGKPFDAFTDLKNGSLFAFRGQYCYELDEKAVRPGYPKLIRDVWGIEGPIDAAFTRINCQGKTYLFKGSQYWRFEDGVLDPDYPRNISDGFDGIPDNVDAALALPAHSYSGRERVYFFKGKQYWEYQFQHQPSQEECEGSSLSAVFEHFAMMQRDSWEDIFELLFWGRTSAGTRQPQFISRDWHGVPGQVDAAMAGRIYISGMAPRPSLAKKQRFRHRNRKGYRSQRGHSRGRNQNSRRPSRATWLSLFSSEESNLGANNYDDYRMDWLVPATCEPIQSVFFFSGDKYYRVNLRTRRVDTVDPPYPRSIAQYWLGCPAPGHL
UniProt P01375, residues 77-233: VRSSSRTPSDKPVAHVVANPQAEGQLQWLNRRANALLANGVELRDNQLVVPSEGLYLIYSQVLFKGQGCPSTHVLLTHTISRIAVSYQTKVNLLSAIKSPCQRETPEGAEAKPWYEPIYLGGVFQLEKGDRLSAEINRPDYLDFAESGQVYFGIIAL
UniProt P06756: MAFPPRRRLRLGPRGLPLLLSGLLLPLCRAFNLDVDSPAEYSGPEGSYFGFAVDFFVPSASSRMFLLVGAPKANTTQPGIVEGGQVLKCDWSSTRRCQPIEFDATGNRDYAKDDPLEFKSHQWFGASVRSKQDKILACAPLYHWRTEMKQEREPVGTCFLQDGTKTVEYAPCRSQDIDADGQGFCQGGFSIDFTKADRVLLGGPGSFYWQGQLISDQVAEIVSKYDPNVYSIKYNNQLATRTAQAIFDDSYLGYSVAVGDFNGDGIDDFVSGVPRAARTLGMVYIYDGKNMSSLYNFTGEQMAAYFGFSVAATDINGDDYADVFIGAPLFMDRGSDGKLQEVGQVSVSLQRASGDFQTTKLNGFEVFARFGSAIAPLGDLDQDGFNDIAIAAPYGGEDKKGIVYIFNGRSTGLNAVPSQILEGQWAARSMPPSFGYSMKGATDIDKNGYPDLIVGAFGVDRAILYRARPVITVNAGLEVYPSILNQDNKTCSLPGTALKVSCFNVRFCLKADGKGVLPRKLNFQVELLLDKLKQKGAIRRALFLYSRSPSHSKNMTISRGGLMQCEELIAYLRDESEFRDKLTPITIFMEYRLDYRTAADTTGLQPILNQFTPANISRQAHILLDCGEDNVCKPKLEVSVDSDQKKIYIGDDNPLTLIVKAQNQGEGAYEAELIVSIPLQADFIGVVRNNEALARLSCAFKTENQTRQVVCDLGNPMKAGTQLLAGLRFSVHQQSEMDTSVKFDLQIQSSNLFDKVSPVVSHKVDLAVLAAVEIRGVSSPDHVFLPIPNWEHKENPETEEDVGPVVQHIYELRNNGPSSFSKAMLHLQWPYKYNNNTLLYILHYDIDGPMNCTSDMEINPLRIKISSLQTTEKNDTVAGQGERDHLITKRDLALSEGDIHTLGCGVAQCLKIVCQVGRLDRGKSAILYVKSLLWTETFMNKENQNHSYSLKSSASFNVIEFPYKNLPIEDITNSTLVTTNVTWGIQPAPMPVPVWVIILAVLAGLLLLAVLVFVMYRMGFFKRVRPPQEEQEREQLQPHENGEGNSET

Experiments:
Assay in all cases: SPR; SPR imaging (SPRi, Biacore Flexchip): partners spotted in triplicate on a bare gold chip at 0.06 to 1 mg/ml; purified LOX-PP injected at 2 µM and recirculated for 20 min; PBS with 0.05% Tween 20, 25 °C; both purified
Glypican 5 = target: T1, Glypican 5 (UniProt P78333)
T1 sequence: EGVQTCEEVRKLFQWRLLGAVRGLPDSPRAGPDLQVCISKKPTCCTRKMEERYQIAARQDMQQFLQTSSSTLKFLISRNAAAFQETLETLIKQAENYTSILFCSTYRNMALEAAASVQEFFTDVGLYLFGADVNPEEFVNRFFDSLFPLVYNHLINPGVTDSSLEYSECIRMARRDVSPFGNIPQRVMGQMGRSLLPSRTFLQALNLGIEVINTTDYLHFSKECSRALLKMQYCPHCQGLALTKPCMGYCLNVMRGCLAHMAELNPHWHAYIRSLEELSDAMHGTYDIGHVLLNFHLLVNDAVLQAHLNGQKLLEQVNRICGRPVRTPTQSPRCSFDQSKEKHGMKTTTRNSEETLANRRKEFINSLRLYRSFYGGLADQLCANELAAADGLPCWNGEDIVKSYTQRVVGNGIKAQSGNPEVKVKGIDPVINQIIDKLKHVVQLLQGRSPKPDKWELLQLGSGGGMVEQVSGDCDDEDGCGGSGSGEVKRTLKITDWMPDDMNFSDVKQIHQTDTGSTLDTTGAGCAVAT

[1] = target: Lysyl oxidase propeptide (LOX-PP) (Pro24Leu) (human) (UniProt P28300)
Collagen IV = Collagen IV (UniProt P02462)
Vitronectin = Vitronectin (UniProt P04004)
Glypican 2 = target: T2, Glypican 2 (UniProt Q8N158)
T2 sequence: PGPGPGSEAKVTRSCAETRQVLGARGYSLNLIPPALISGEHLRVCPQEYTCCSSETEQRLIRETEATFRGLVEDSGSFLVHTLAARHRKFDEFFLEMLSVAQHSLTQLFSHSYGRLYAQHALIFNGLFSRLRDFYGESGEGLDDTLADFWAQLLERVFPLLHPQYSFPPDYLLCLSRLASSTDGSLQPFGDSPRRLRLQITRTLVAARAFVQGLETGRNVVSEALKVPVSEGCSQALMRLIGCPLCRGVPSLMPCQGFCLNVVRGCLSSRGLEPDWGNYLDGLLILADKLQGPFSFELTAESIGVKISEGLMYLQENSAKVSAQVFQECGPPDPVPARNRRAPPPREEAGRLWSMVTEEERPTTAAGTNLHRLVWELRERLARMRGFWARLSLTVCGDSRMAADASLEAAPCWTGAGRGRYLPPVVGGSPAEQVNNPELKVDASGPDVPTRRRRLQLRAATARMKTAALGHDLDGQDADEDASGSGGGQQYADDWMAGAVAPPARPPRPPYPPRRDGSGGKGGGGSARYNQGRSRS

[2] = target: Tumor necrosis factor α (TNFα) (UniProt P01375)
Integrin αvβ3 ectodomain = Integrin αvβ3 ectodomain (UniProt P06756)

binding (Glypican 5): no binding (tested: 2 µM)
binding [1]: no binding (tested: 2 µM)
binding (Collagen IV): no binding (tested: 2 µM)
binding (Vitronectin): no binding (tested: 2 µM)
binding (Glypican 2): no binding (tested: 2 µM)
binding (Integrin αvβ3 ectodomain): no binding (tested: 2 µM)
Substance: Lysyl oxidase propeptide (LOX-PP) (Pro24Leu) (from UniProt P28300 22-168) (domain or fragment)
binding [2]: no binding (tested: 2 µM)
